Data from the supplement of paper PMC4967469.
By IC50 is meant the dose at which the fit gives 50% viability; where the fit passes the top or lowest dose, that dose stands as a limit. For AUC the same curve is integrated over the 256-fold range of doses and scaled to a fraction: 1 means no effect, lower means more sensitive. For some assays here: An inferred top dose was calculated from the reported fits. For some assays here: Drugs with an entry number were screened twice under separate entries, and the two screens often disagree.

Columns and labels:
Assay in all cases: Viability of human cancer cell lines after 72 h of drug (GDSC screen)
AZD-0530 = compound: CN1CCN(CCOc2cc(OC3CCOCC3)c3c(Nc4c(Cl)ccc5c4OCO5)ncnc3c2)CC1 [AZD-0530]; details: top dose 2 µM
Method: (§1)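 Human cancer cell lines in 384-well plates, medium with 10% serum, drug for 72 h over a 256-fold dose range (nine 2-fold or five 4-fold steps up to the top dose). Adherent lines were fixed and stained with the nucleic acid dye Syto60, suspension lines read with resazurin; signal relative to control wells, capped at 0 and 100%. One two-parameter sigmoid per drug and line, fitted in a mixed model over all curves with the slope shared within a line.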

Epothilone B = compound: C/C(=C\c1csc(C)n1)[C@@H]1C[C@@H]2O[C@]2(C)CCC[C@H](C)[C@H](O)[C@@H](C)C(=O)C(C)(C)[C@@H](O)CC(=O)O1 [Epothilone B]; details: top dose 0.032 µM; top dose inferred
Method: as §1

Pyrimethamine = compound: CCc1nc(N)nc(N)c1-c1ccc(Cl)cc1 [Pyrimethamine]; details: top dose 20 µM; top dose inferred
Method: as §1

Y-39983 = compound: C[C@@H](N)c1ccc(C(=O)Nc2ccnc3[nH]ccc23)cc1 [Y-39983]; details: top dose 20 µM; top dose inferred
Method: as §1

PHA-793887 = compound: CC(C)CC(=O)Nc1n[nH]c2c1CN(C(=O)C1CCN(C)CC1)C2(C)C [PHA-793887]; details: top dose 10.24 µM
Method: as §1

PLX4720 = compound: CCCS(=O)(=O)Nc1ccc(F)c(C(=O)c2c[nH]c3ncc(Cl)cc23)c1F [PLX4720]; details: top dose 10 µM
Method: as §1

TPCA-1 = compound: NC(=O)Nc1sc(-c2ccc(F)cc2)cc1C(N)=O [TPCA-1]; details: top dose 20 µM
Method: as §1

[1] = screen: GDSC drug entry 1371, top dose inferred

Cell Line | AUC (AZD-0530) | IC50 (AZD-0530) [µM] | AUC (Epothilone B) | IC50 (Epothilone B) [µM] | AUC (Pyrimethamine) | IC50 (Pyrimethamine) [µM] | AUC (Y-39983) | IC50 (Y-39983) [µM] | AUC (PHA-793887) | IC50 (PHA-793887) [µM] | AUC (PLX4720; screen: GDSC drug entry 1036) | IC50 (PLX4720; screen: GDSC drug entry 1036) [µM] | AUC (PLX4720; [1]) | IC50 (PLX4720; [1]) [µM] | AUC (TPCA-1) | IC50 (TPCA-1) [µM]
BL-41 (Burkitt lymphoma, suspension) | 0.988 | > 2 | 0.435 | 0.00139 | 0.918 | 17.5 | 0.625 | 2.52 | 0.051 | < 0.04 | 0.99 | > 10 | 0.991 | > 10 | 0.53 | 1.48
BV-173 (chronic myeloid leukaemia, suspension) | 0.746 | 0.571 | 0.79 | 0.0124 | 0.821 | 9.81 | 0.87 | 14.9 | 0.522 | 0.727 | 0.793 | 3.98 | 0.944 | > 10 | 0.741 | 5.5
Becker (glioma, adherent) | 0.886 | > 2 | 0.565 | 0.00308 | 0.984 | > 20 | 0.964 | > 20 | 0.91 | > 10.2 | 0.982 | > 10 | 0.915 | > 10 | 0.923 | > 20
CAL-148 (breast, suspension) | 0.987 | > 2 | 0.672 | 0.0058 | 0.983 | > 20 | 0.942 | > 20 | 0.954 | > 10.2 | – | – | – | – | 0.821 | 10.5
HCC-33 (small cell lung carcinoma, adherent) | 0.985 | > 2 | 0.814 | 0.0177 | 0.919 | > 20 | 0.912 | > 20 | 0.404 | 0.348 | – | – | – | – | 0.911 | > 20
IM-9 (myeloma, suspension) | 0.992 | > 2 | 0.895 | 0.0296 | 0.973 | > 20 | – | – | – | – | 0.983 | > 10 | 0.96 | > 10 | – | –
KARPAS-231 (B-cell leukaemia, suspension) | 0.907 | 1.61 | 0.44 | 0.00143 | 0.679 | 3.46 | – | – | 0.204 | 0.114 | 0.901 | 7.62 | 0.994 | > 10 | – | –
KMS-12-BM (myeloma, suspension) | 0.99 | > 2 | 0.622 | 0.00407 | 0.916 | > 20 | 0.875 | 14 | 0.45 | 0.479 | – | – | – | – | 0.526 | 1.45
KP-N-YS (neuroblastoma, adherent) | 0.967 | > 2 | 0.582 | 0.00348 | 0.894 | > 20 | 0.74 | 6.79 | 0.666 | 1.99 | – | – | – | – | 0.693 | 4.73
LB647-SCLC (small cell lung carcinoma, semi-adherent) | 0.931 | > 2 | 0.566 | – | 0.898 | > 20 | – | – | – | – | 0.944 | > 10 | 0.983 | > 10 | – | –
NCI-H748 (small cell lung carcinoma, suspension) | 0.972 | > 2 | 0.864 | > 0.032 | 0.858 | > 20 | 0.952 | > 20 | 0.619 | 1.49 | – | – | – | – | 0.875 | > 20
NCI-H1963 (small cell lung carcinoma, suspension) | 0.991 | > 2 | 0.76 | 0.00993 | 0.886 | 17.1 | 0.989 | > 20 | – | – | – | – | – | – | 0.951 | > 20
NCI-H2171 (small cell lung carcinoma, suspension) | 0.981 | > 2 | 0.753 | 0.00941 | 0.879 | 15.9 | 0.987 | > 20 | 0.729 | 2.57 | – | – | – | – | 0.867 | 14.2
NCI-H2196 (small cell lung carcinoma, adherent) | 0.986 | > 2 | 0.925 | > 0.032 | 0.928 | > 20 | 0.986 | > 20 | 0.899 | > 10.2 | – | – | – | – | 0.898 | > 20
SCC-3 (B-cell lymphoma, suspension) | 0.994 | > 2 | 0.83 | 0.013 | 0.525 | 1.44 | 0.983 | > 20 | 0.328 | 0.246 | – | – | – | – | 0.995 | > 20
SIG-M5 (acute myeloid leukaemia, suspension) | 0.994 | > 2 | 0.23 | 0.000428 | 0.843 | 9.25 | 0.626 | 2.54 | 0.098 | 0.0555 | – | – | – | – | 0.36 | 0.571
SK-MEL-2 (melanoma, adherent) | 0.985 | > 2 | 0.669 | 0.00605 | 0.92 | > 20 | 0.985 | > 20 | 0.795 | 4.95 | – | – | – | – | 0.96 | > 20
SU-DHL-1 (anaplastic large cell lymphoma, suspension) | 0.994 | > 2 | 0.988 | > 0.032 | 0.871 | 10.5 | 0.997 | > 20 | 0.435 | 0.447 | – | – | – | – | 0.997 | > 20
TALL-1 (T-cell lymphoblastic leukaemia, suspension) | 0.988 | > 2 | 0.986 | > 0.032 | 0.973 | > 20 | 0.941 | > 20 | 0.866 | 8.4 | – | – | – | – | 0.88 | 19.1
TE-441-T (rhabdomyosarcoma, adherent) | 0.981 | > 2 | 0.847 | 0.0223 | 0.945 | > 20 | 0.977 | > 20 | 0.793 | 4.47 | – | – | – | – | 0.837 | 12.7
UACC-812 (breast, adherent) | 0.925 | > 2 | 0.982 | > 0.032 | 0.983 | > 20 | 0.991 | > 20 | 0.99 | > 10.2 | – | – | – | – | 0.977 | > 20
